Test results: article PMC4336329 (PLoS ONE, 2015)
In all, about 310,000 compounds went through this assay and about 14,000 (4.5%) showed an effect of 50% or more. The effect is printed as a negative number. The list shows a part of the results.

Molecular target: human ether-à-go-go-related gene (hERG) potassium channel (human, UniProt Q12809)
Assay: primary screen, population patch clamp on CHO cells stably expressing hERG
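Also: peak tail current of the secondary pulse compared with the same well before compound.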

Sequence of human ether-à-go-go-related gene (hERG) potassium channel (Q12809 whole entry, looked up): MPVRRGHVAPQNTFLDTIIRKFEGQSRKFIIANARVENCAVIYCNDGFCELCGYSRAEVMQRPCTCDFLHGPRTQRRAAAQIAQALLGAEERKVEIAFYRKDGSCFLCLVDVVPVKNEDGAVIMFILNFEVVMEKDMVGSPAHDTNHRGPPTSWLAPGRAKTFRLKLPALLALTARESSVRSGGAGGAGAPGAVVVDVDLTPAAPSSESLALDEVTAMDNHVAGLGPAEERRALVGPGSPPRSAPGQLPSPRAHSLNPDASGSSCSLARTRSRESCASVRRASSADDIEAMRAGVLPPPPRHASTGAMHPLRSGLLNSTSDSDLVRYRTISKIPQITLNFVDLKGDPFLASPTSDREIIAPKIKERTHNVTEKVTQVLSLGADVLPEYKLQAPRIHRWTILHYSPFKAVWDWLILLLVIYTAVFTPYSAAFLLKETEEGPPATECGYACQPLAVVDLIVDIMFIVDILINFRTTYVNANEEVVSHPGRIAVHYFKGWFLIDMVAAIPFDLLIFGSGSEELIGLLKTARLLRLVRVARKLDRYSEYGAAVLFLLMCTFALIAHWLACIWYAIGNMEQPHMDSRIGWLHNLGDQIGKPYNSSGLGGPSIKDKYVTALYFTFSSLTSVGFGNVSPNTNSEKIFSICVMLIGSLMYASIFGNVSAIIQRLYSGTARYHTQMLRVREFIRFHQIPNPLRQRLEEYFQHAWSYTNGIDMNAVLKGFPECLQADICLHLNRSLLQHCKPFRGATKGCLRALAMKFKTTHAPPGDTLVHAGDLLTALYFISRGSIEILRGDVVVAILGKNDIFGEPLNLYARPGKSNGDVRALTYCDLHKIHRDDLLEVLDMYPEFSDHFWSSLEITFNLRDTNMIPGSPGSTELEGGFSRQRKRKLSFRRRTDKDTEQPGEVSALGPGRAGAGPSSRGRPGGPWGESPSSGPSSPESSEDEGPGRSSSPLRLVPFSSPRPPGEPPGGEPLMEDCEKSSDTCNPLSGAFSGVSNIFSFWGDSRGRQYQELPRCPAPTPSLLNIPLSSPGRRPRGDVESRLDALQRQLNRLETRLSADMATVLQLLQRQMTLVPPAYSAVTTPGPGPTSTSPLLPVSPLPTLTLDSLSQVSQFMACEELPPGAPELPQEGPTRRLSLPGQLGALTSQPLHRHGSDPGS

SMILES	hERG current change (%, negative = inhibition) at 10uM [%]
Cc1sc(NC(=O)C2=COCCO2)nc1-c1ccc(F)cc1	15.5
CCOC(=O)C1=NN(N=O)C2(CC(=O)N(c3cc(C)cc(C)c3)C2=O)C1 (centres unmarked)	-4.22
O=C(c1cc2cc([N+](=O)[O-])ccc2oc1=O)N1CCN(C2CCCCC2)CC1	-72.5
COc1ccccc1C(=O)NC(=O)CSc1cccc[n+]1[O-]	13.6
CCCCC1=CC2=C(c3ccco3)C(=O)C(C)(OC(=O)c3ccc(OC)cc3)C(=O)C2=CN1CCCN(CC)CC (centres unmarked)	2.5
O=C(Nc1ccccc1)c1ccc(S(=O)(=O)N(CCO)CCO)cc1	3.74
COC(=O)Cn1ncc(N(C)Cc2ccccc2)c(Cl)c1=O	-2.52
COc1ccc(C2=NO[C@@H]3C(=O)N(c4ccc(C)cc4C)C(=O)[C@H]23)cc1OC	1.08
CCOC(=O)c1c(N/N=C/c2cccnc2)n[nH]c1C	1.57
CCc1noc(C)c1C(=O)OC(C)C(=O)Nc1ccccc1OC (centres unmarked)	-12.8
CNc1ccc(Br)cc(C(=O)/C=C/c2ccc(OC)cc2OC)c1=O	4.51
Cc1ccc(C(=O)N2CCN(C)CC2)cc1S(=O)(=O)N1CCCCCC1	-25.9
Cc1ccc(C)c(-n2c(N)c(C(N)=O)sc2=S)c1	-9.17
CCOC(=O)c1cc(C(=O)c2cc(F)ccc2O)coc1=N	-3.66
C=CCN1C(=O)c2ccc(C(=O)OCC(=O)Nc3ccc(S(N)(=O)=O)cc3)cc2C1=O	-14.5
Cc1ccc(S(=O)(=O)/N=C2/C=C(Sc3ncn[nH]3)C(=O)c3ccccc32)c(C)c1	23.8
COC(=O)c1ccc(OC(=O)c2cnccn2)cc1	20.1
Cc1ccc2nc3n(c(=O)c2c1)-c1ccc(Cl)cc1C(=O)NC3Cc1ccccc1 (centres unmarked)	6.15
COc1ccc(CCNC(=O)COC(=O)c2ccc(C)s2)cc1	-5.42
Cc1ccc(NC(=O)CCN2C(=O)C3CCCCC3C2=O)cc1[N+](=O)[O-] (centres unmarked)	-14.3
CCC(=O)n1nc(-c2ccco2)nc1SCc1ccccc1	9.32
Cc1ccccc1-c1nnn(CC(=O)N2CCN(C(=O)c3ccco3)CC2)n1	-40.1

SMILES	hERG current change (%, negative = inhibition) at 10uM [%]
CN1CCN(NC(=O)c2cc(S(=O)(=O)N3CCOCC3)c(Cl)cc2Cl)CC1.Cl	7.95
CN1CCC(=NOc2ccc([N+](=O)[O-])cc2)CC1	-74.8
CCN(CC)S(=O)(=O)c1ccc(N=Nc2c(N)[nH]c(=O)[nH]c2=O)cc1	28.4
COc1ccc(OC)c(CCNC(=O)c2ccc3c(c2)N(Cc2ccccc2)CCS3)c1	8.55
O=C(COC(=O)c1cccc(N2C(=O)C3CC=CCC3C2=O)c1)c1ccccc1 (centres unmarked)	14.7
Cc1cccc(Cn2c(C)nc3ccc([N+](=O)[O-])cc3c2=O)c1	-25.1
CSc1nc(=O)n2cccc(C)c2n1	4.07
O=C(CCC1CCCC1)c1c(O)c2ccccc2oc1=O	12.4
O=C1N=C(N2CCOCC2)S/C1=C\c1ccc(-c2ccccc2Cl)o1	-15.3
CN(C)c1ccc(N2C(=O)CSC2=S)cc1	11.5
CCOC(=O)C1=C(O)C(=O)N(c2ccc(S(N)(=O)=O)cc2)C1c1cccc([N+](=O)[O-])c1 (centres unmarked)	-8.34
Oc1c(Br)cc(Cl)cc1C=Nc1ccccc1Br	-9.32
CCOC(=O)C1CCCN(c2c(NCCc3ccc(C)cc3)c(=O)c2=O)C1 (centres unmarked)	-3.1
OC(Cn1c2ccccc2c2ccccc21)C[n+]1ccccc1.[O-][Cl+3]([O-])([O-])[O-] (centres unmarked)	7.25
c1cncc(CSc2nnc3ccc(-c4cccs4)nn23)c1	-39
COc1sc(SC)cc1/C=N/NC(=O)c1ccncc1	16.1
CCC1CCCCN1Cc1cc(OC)c(O)c([N+](=O)[O-])c1 (centres unmarked)	5.27
CCN(CC)S(=O)(=O)c1cccc(C(=O)Nc2ccccc2)c1	-28
COc1cccc(OCC(Cn2cnc3ccccc32)OC(C)=O)c1 (centres unmarked)	-27.3
CS(=O)(=O)N1CCc2cc(C(=O)Nc3ccccc3Br)ccc21	-3.16
CCS(=O)(=O)N1CCCC(C(=O)NCCCN2CCCC2=O)C1 (centres unmarked)	10.8
CCOc1cc(/C=N/NC(=O)c2ccccc2-n2cccc2)ccc1O	-22.8
